Among all 350,000 compounds or so, about 31,000 (8.9%) were called active. This list was built around the results that the source calls inconclusive (neither active nor inactive); the mix of calls is not that of the screen. The call rests on the fitted dose curve; in most records, active means well fitted inhibition curve with a large enough effect; inconclusive means small, poorly fitted or top-dose-only effect; inactive means no such curve, though single readings can be large or run the other way. Potencies beside an inconclusive call are fits to weak or partial responses and may not hold up.
Target: Histone-lysine N-methyltransferase EHMT2 (Homo sapiens) (UniProt Q96KQ7)
UniProt Q96KQ7, sequence (Q96KQ7 whole entry, looked up): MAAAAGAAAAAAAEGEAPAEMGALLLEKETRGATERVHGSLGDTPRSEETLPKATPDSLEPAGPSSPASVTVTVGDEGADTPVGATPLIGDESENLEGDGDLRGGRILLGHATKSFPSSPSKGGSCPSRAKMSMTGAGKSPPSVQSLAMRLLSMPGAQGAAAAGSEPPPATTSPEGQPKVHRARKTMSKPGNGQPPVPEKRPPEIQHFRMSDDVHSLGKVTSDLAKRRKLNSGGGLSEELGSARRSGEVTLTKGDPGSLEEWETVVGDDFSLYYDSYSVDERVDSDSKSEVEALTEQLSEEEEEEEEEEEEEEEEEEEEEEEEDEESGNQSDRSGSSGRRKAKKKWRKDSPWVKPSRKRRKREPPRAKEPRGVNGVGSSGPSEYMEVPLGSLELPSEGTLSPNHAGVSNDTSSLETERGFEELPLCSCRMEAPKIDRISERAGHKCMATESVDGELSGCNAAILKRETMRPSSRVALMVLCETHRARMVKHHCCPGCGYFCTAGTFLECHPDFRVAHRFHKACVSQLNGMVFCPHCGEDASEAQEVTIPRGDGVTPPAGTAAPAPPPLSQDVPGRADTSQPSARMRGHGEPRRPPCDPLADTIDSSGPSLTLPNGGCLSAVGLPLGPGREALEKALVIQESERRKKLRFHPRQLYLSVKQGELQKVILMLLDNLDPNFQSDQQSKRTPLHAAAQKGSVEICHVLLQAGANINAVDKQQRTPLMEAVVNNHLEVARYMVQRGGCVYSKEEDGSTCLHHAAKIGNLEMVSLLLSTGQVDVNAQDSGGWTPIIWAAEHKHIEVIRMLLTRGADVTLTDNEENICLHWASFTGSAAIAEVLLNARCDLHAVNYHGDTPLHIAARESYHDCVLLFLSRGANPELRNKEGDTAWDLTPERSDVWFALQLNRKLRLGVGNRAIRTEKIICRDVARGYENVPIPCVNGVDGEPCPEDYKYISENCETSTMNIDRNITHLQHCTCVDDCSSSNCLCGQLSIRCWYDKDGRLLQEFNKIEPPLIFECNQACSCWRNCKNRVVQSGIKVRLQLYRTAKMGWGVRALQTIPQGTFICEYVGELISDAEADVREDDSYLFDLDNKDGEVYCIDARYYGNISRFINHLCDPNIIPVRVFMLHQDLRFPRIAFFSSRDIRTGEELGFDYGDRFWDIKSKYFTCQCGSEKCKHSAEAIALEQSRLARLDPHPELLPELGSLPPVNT
Experiment: qHTS Assay for Inhibitors of Histone Lysine Methyltransferase G9a; further: nearly all actives have a fitted effect of over 75% in size
Conditions: G9a H3K9 monomethylation, AlphaScreen, 2 h; activity, negative = inhibition: at 59 µM (top of the series) unless noted
In short: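 Signal arises when biotinylated H3K9 peptide, once monomethylated, bridges streptavidin donor and antibody-captured acceptor beads. Enzyme at 20 nM was preincubated 15 min with test compounds; peptide 500 nM and SAM 20 uM then reacted for 2 h.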
On the % scale 0 is the no-effect control and ±100 the full control effect; potency means the concentration at half of the fitted maximal effect; tags describe the fitted curve by direction and shape.

Row | Structure (SMILES) | activity, negative = inhibition | Potency
1 | O=C(Cc1ccc([N+](=O)[O-])cc1)N/N=C/c1cccs1 | inactive: 134% [at 102 µM] | 
2 | COc1ccc(Cn2nnnc2C(c2cc3cc(C)cc(C)c3[nH]c2=O)N2CCOCC2)cc1 (stereo not given) |  | inconclusive: 6.31 µM [inhibitor, single point]
3 | CCOC(=O)C1(Cc2cccc(OC)c2)CCN(Cc2cccc(OC)c2O)CC1 |  | inconclusive: 56.2 µM [inhibitor, partial curve]
4 | CCOC(=O)C1=C(N)OC2=C(C(=O)CC(C)(C)C2)C1c1cc(CSc2nnnn2C)cs1 (stereo not given) |  | inconclusive: 56.2 µM [inhibitor, partial curve, poor fit]
5 | COC(=O)c1nc2n(n1)C(c1cc(OC)ccc1OC)C=C(c1ccc(Br)cc1)N2 (stereo not given) |  | inconclusive: 39.8 µM [inhibitor, single point]
6 | COc1ccc(-c2nn(CCC#N)cc2/C=N/O)cc1 | inactive: 1.17% [at 102 µM] | 
7 | C#Cc1ccc([C@@H]2C=C(C(=O)N3CCN(Cc4ccccc4)CC3)O[C@H](OCCCCO)C2)cc1 | inconclusive: -102% [inhibitor] | 
8 | CCN(CC)S(=O)(=O)c1cccc(C(=O)N[C@H](C(=O)O)C(C)C)c1 |  | inconclusive: 79.4 µM [inhibitor, single point]
9 | Nc1nc2cc3ccccc3cc2[nH]c1=O |  | inconclusive: 56.2 µM [inhibitor, partial curve, poor fit]
10 | Cc1cc(Nc2cc(F)ccc2C)n2nc(C)nc2n1 |  | inconclusive: 89.1 µM [inhibitor, single point]
11 | CC(C)CCNC(=O)CN(C(=O)CCC(=O)Nc1nccs1)C1CCCCC1 | inactive: -1.77% [at 102 µM] | 
12 | Cc1c(Cl)cccc1NS(=O)(=O)c1ccc(NS(=O)(=O)c2ccc3c(c2)OCCO3)cc1 |  | inconclusive: 28.2 µM [inhibitor, single point]
13 | COc1ccc(C2C3=C(CC(C)(C)CC3=O)OC(N)=C2[N+](=O)[O-])cc1 (stereo not given) |  | inconclusive: 89.1 µM [inhibitor, single point]
14 | CCOc1ccc(NC(=O)c2ccc(NC(=O)CN3C(=O)C(=O)N(CC(C)C)C3=O)cc2)cc1 |  | inconclusive: 44.7 µM [inhibitor, partial curve, poor fit]
15 | C/C(=N\N=C(N)N)c1ccc(Cl)c(Cl)c1 |  | active: 50.1 µM
16 | COc1ccc(CCNC(=O)CSc2n[nH]c(C)c2[N+](=O)[O-])cc1OC |  | inconclusive: 89.1 µM [inhibitor, partial curve, poor fit]
17 | Clc1cccc(-c2ccc(CNCCCN3CCOCC3)o2)c1 |  | inconclusive: 56.2 µM [inhibitor, single point]
18 | COC(=O)c1ccc(CSc2n[nH]c(=S)s2)o1 |  | active: 1.12 µM
19 | Cc1sc(NC(=S)Nc2ccc(F)cc2)c(C(N)=O)c1C |  | active: 28.2 µM
20 | Cc1ccc(N2CC(C(=O)Nc3nnc(SCCC4OCCO4)s3)CC2=O)cc1 (stereo not given) |  | active: 12.6 µM
21 | Nc1nnc(SCC(=O)NNC(=O)c2ccccc2)s1 |  | inconclusive: 44.7 µM [inhibitor, partial curve]
22 | O=C(c1ccccc1F)N1c2nc(-c3ccco3)nn2C2(CCCCC2)[C@@H]2CCCC[C@@H]21 | inactive: -6.02% | 
23 | O=C(NC1CCCCCC1)c1cc(-c2ccccn2)nc2ccccc12 | inactive: -12% [at 102 µM] | 

Row | Structure (SMILES) | activity, negative = inhibition | Potency
24 | O=[N+]([O-])c1cc([N+](=O)[O-])c2nonc2c1Nc1ccc(O)cc1 |  | active: 11.2 µM
25 | O=C1[C@H]2[C@H](ON3CCCC[C@H]23)C(=O)N1c1ccc(Cl)cc1 | inactive: -35.2% [at 102 µM] | 
26 | CCN(c1ccc(OC)cc1)S(=O)(=O)c1nnc(NC(=O)c2ccco2)s1 |  | inconclusive: 79.4 µM [inhibitor, single point]
27 | Cc1cc(Br)ccc1NC(=O)C1C2CCC(O2)C1C(=O)O (stereo not given) |  | active: 31.6 µM
28 | O=C1CN(C(=O)COc2ccc(Cl)cc2)C(c2ccc(F)cc2)c2cc(Cl)ccc2N1 (stereo not given) | inactive: -32.6% | 
29 | COc1ccccc1N1CCN(C(=O)CCn2c(=O)[nH]c3ccccc3c2=O)CC1 |  | inconclusive: 12.6 µM [inhibitor, single point]
30 | CC(=O)c1ccc(N2CCN(C(=O)C(=O)c3c(C)[nH]c4ccccc34)CC2)cc1 | inactive: 94% [at 102 µM] | 
31 | CCCCn1c(N)c(N(CCOC)C(=O)C2CCN(C(=O)c3ccc(Cl)cc3)CC2)c(=O)[nH]c1=O |  | active: 56.2 µM
32 | O=C(O)CSc1ncccc1C(=O)O |  | inconclusive: 0.355 µM [inhibitor, full curve, poor fit]
33 | CC(=O)Nc1ccc(N2CCCCC2)cc1 | inconclusive: -77.5% [inhibitor] | 
34 | O=C(O)CN1C(=O)CC(Cc2ccccc2)C1=O (stereo not given) |  | inconclusive: 79.4 µM [inhibitor, single point]
35 | Cc1cccc(-n2ccnc2SCC(=O)Nc2ccc3c(c2)OCCO3)c1 | inconclusive: -82.4% [inhibitor] | 
36 | CC(C)NCC(O)COCc1ccc(Cl)cc1 (stereo not given) | inactive: -1.95% | 
37 | CC1(C)CC2(CCO1)OC(=O)CC2C(=O)Nc1cccc2ccccc12 (stereo not given) |  | inconclusive: 35.5 µM [inhibitor, single point]
38 | Cc1cc(NC(=O)COC(=O)c2ccc([N+](=O)[O-])cc2Cl)no1 | inactive: 0.675% [at 12.7 µM] | 
39 | CN(Cc1ccc(N(C)C)cc1)C(=O)c1cc2ccccc2o1 |  | active: 39.8 µM
40 | CC(C)C(=O)Nc1ccc(S(=O)(=O)Nc2nccc(/C=C/c3ccccc3)n2)cc1 |  | inconclusive: 89.1 µM [inhibitor, single point]
41 | O=C(COC(=O)c1ccc([N+](=O)[O-])o1)Nc1cccc(S(=O)(=O)N2CCOCC2)c1 |  | inconclusive: 22.4 µM [inhibitor, single point]
42 | CCCC1C(C#N)=C(N)Oc2n[nH]c(C(C)(C)C)c21 (stereo not given) |  | inconclusive: 31.6 µM [inhibitor, single point]
43 | Cc1ccc(-n2c(CSc3nc(C)cc(C)n3)nnc2SCC(=O)N2CCCC2)cc1 |  | inconclusive: 39.8 µM [inhibitor, single point]
44 | O=C(CN1CCCCCC1)N/N=C/c1cccc(Cl)c1 |  | inconclusive: 25.1 µM [inhibitor, single point]
45 | COc1cc(C(c2c(C)[nH][nH]c2=O)c2c(C)[nH][nH]c2=O)ccc1OC(=O)c1cccc(C)c1 |  | inconclusive: 1.58 µM [inhibitor, full curve, poor fit]

Source: PubChem BioAssay AID504332 (National Center for Advancing Translational Sciences (NCATS), 2011)
